In all, about 73,000 compounds went through this assay and about 1,800 (2.5%) were called active. Not shown: some 13% with an inconclusive outcome. Calls follow the shape of the dose curve; as a rule, active = well fitted activation curve with a large enough effect; inconclusive = small, poorly fitted or top-dose-only effect; inactive = no such curve, though single readings can be large or run the other way. The list shows a part of the results, in another mix than the full data. A structure can be active in one record and inactive in another.
Potency is read from the fitted curve at half-maximal effect.

The assay in a line: qHTS Assay for Agonists of the Thyroid Stimulating Hormone Receptor: Activators of Intracellular cAMP Concentrations in Parental HEK 293. Also: nearly all actives have a fitted effect of over 55% in size. As to activation: % of control where 0% means no effect. To be noted: parental HEK293 CNG cAMP sensor, membrane potential fluorescence; series mostly up to 57.1 µM; activation: at the top concentration. The gist of the method:
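Parental HEK 293 cells stably expressing a modified CNG channel (no TSHR) report cAMP rise as membrane depolarization. Membrane potential dye with 100 uM RO 20-1724 was loaded for 60 min at room temperature, then compound added for 30 min; fluorescence read at 590 nm.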
On the technique in general: Quantitative high-throughput screening tests each substance at several concentrations.
Regarding `N#Cc1cccc(C(c2nnnn2CCc2ccccc2)N2CCN(C3CCCCC3)CC2)c1` (centres undefined), the “activation” value is inactive: -38%.

As to `CCCn1nnc(NC(=O)COc2ccccc2Cl)n1`, the “activation” value was inactive: 9.41%.

With `O=C(c1ccco1)N1CCN(S(=O)(=O)c2ccc(Oc3ccccc3)cc2)CC1`, the Potency was active: 20 µM.

For `COCc1nc2ccccc2n1Cc1ccc(Br)cc1`, the “activation” value was inactive: 35.8%.

Consider `O=C1C[C@@H](O)[C@@H](O)[C@H]2[C@@H]3C(=O)N(Cc4ccccc4)C(=O)[C@@H]3CC[C@H]12`, for which the activation was inactive: -6.38% [at 11.4 µM].

On to `C=CC(=O)CC`, for which the “activation” value was inactive: -19.3%.

Consider `CC(=O)N1CCN(c2ccccc2NC(=O)c2cc(Br)ccc2Cl)CC1`, for which the Potency was active: 31.6 µM.

As for `Cc1cc(Nc2cccc(F)c2)nc(-c2ccccc2O)n1`, the “activation” value is inactive: -39.5%.

For the compound `CN(C)CCCn1cc(C2=C(c3c[nH]c4ccccc34)C(=O)NC2=O)c2ccccc21`, the “activation” value is inactive: -52.9%.

`COc1ccccc1C(=O)Nc1ccc(N2CCN(Cc3ccccc3)CC2)cc1`: the “activation” value was inactive: -66.2%.

`COC(=O)[C@@H]1[C@@H]2C[C@H]3c4[nH]c5cc(OC)ccc5c4CCN3C[C@@H]2C[C@H](OC(=O)c2cc(OC)c(OC)c(OC)c2)[C@H]1OC`: the “activation” value was inactive: -14.6% [at 25.6 µM].

As for `COc1cc2ccccc2cc1C(=O)Nc1ccc(N2CCN(C)CC2)cc1`, the “activation” value was inactive: -40.2%.

On to `Nc1ncnc2c1ncn2[C@@H]1O[C@@H](CO)[C@H](O)[C@H]1O`, for which the “activation” value is inactive: 6.49% [at 25.6 µM].

For the compound `O=C(CSc1nnc(-c2ccc(Br)o2)n1Cc1ccccc1)c1ccccc1F`, the Potency was active: 20 µM.

Turning to `COC(=O)c1[nH]c2ccc(Br)cc2c1NC(=O)CN1CCN(C2CCCCC2)CC1`, the “activation” value was inactive: -109%.

`Cc1ccc(Cl)cc1N1CCN(Cc2nnnn2C2CCCCC2)CC1`: the Potency is active: 12.6 µM.

On to `Cc1ccc(C(=O)Nc2ccccc2C(=O)NC2CCCCC2)cc1S(=O)(=O)N1CCOCC1`, for which the Potency is active: 15.8 µM.

Turning to `CCN1CCN(c2nc3ccccc3nc2C(C#N)C(=O)OC2CCCCC2)CC1` (centres undefined), the “activation” value is inactive: -52.7%.

`CCOC(=O)c1c(NC(=O)CSc2nnc(Cc3csc(N)n3)n2C)sc(C)c1C`: the “activation” value is inactive: 0.369%.

In the case of `CCCCCCc1ccc(OCC(=O)O)cc1OCC(=O)O`, the “activation” value was inactive: 5.07%.

Regarding `CCC1CCCCN1CC(=O)Nc1cc(C)nn1-c1nc(C)cc(C)n1` (centres undefined), the Potency is active: 25.1 µM.

For `CCOC(=O)CNc1nnc(SCC(=O)OCC)[nH]c1=O`, the “activation” value is inactive: -40.6%.

For `Cc1ccc(-c2nc3nc4ccccc4nc3n2Cc2ccco2)cc1`, the Potency was active: 25.1 µM.

Regarding `O=C1C(SCCO)=C(SCCO)C(=O)c2ccccc21`, the “activation” value was inactive: -36.6%.

On to `NC(=O)NCC12CC3CC(CC(C3)C1)C2`, for which the “activation” value is inactive: 2.33%.

`Cc1cccc2cc(C#N)c(N3CCN(C)CC3)nc12`: the Potency was active: 15.8 µM.

For `COC(=O)c1cc(COc2ccc3oc(C)c(C(=O)OC)c3c2)c(C)o1`, the Potency was active: 15.8 µM.

For the compound `CNc1nc(-c2ccc3c(c2)OCO3)nc2ccccc12`, the “activation” value was inactive: -38.6%.

For `CCOC(=O)c1c(C)n(OCc2ccccc2)c2ccc3nonc3c12`, the Potency is active: 10 µM.

As to `CN(C)CC[C@H](c1ccc(Cl)cc1)c1ccccn1`, the “activation” value is inactive: 6.08% [at 25.6 µM].

For the compound `COc1cccc(/C(O)=C2/C(=O)C(=O)N(c3cc(C)on3)C2c2cccs2)c1` (centres undefined), the “activation” value is inactive: 7.12%.

On to `O=C(CCc1ccccc1)Nc1ncn[nH]1`, for which the “activation” value was inactive: 17.5%.

For `Cc1ccc(CNc2ncc(-c3ccc4c(c3)OCO4)n2C)cc1`, the “activation” value is inactive: -87.1%.

Turning to `N[C@H]1CCN(O)C1=O`, the “activation” value is inactive: 1.77%.

For `COc1cccc(-c2nc(NCc3ccccc3)c3ccccc3n2)c1`, the Potency is active: 31.6 µM.

In the case of `O=c1c2cccnc2[nH]c(=S)n1CCCN1CCN(c2ccc(F)cc2)CC1`, the “activation” value was inactive: -45.7%.

For `CN(C)c1ccc(-c2nc(-n3ccnc3)c3ccccc3n2)cc1`, the “activation” value was inactive: -30.2%.

`CCN(CC)CCOC(=O)C1(c2ccc([N+](=O)[O-])cc2)CCCC1`: the “activation” value was inactive: 5.24% [at 25.6 µM].

For `CN(C)CCCN1c2ccccc2CCc2ccc(Cl)cc21`, the Potency entry was “inactive”.

For the compound `C[C@@H]1CC2(OC(O)[C@]3(C)O[C@H]23)O[C@H]2C[C@@]3(C)[C@@H]4CC[C@H]5C(C)(C)C(O[C@@H]6OC[C@@H](O)[C@H](O)[C@H]6O)CC[C@@]56C[C@@]46CC[C@]3(C)[C@@H]12` (some centres undefined), the “activation” value was inactive: -34.9%.

As to `Cc1sc2ncnc(N3CCCCC3C)c2c1C` (centres undefined), the Potency is active: 25.1 µM.

`CCc1c(C)sc(NC(=O)c2ccco2)c1C(=O)N1CCOCC1`: the “activation” value was inactive: -56%.

Turning to `CCCCCCN(CCCCCC)C(=O)Cc1c(-c2ccc(F)cc2)[nH]c2ccccc12`, the “activation” value is inactive: 15.7%.

For `CCOC(=O)c1sc(C)c2c1NC(C)(c1cccs1)NC2=O` (centres undefined), the “activation” value was inactive: 3.37%.

As to `COC(=O)[C@H]1[C@H]2C[C@@H]3c4[nH]c5cc(OC)ccc5c4CCN3C[C@H]2C[C@@H](OC(=O)c2cc(OC)c(OC)c(OC)c2)[C@@H]1OC`, the “activation” value was inactive: -59.1%.

Turning to `CC(C)C[C@H](NC(=O)[C@@H](O)[C@H](N)Cc1ccccc1)C(=O)O`, the “activation” value is inactive: 10.4%.

In the case of `CCCC1(c2ccccc2)NC(=O)N(CC(=O)c2[nH]c(C)c(C(=O)OCC)c2C)C1=O` (centres undefined), the “activation” value was inactive: -36.9%.

Consider `CCOC(=O)c1ccc2ncc(C(=O)OCC)c(NCc3ccco3)c2c1`, for which the Potency is active: 25.1 µM.

Turning to `CO[C@H]1C=CO[C@]2(C)Oc3c(C)c(O)c4c(O)c(c5c(c4c3C2=O)NC2(CCN(CC(C)C)CC2)N=5)=NC(=O)C(C)=CC=C[C@@H](C)[C@@H](O)[C@@H](C)[C@@H](O)[C@@H](C)[C@@H](OC(C)=O)[C@@H]1C`, the “activation” value is inactive: -23.7% [at 25.6 µM].

Source of the values: PubChem BioAssay AID938 (National Center for Advancing Translational Sciences (NCATS), 2007).
